Test results from the supplement of paper PMC3334620.
In all, about 33,000 sequences were measured (“E-score (-0.5 to 0.5)”: median about -0.053, highest 2% from about 0.37 on). This is one part of the list.

The sequences below were run against Hap1 (UniProt P0CE41) (assay: PBM E-score (8-mer binding enrichment) (E-score (-0.5 to 0.5)); higher = stronger / more preferred TF binding; most listed sequences are background and not binding sites). Conditions: protein concentration: 200 nM; construct: GST-DNA-binding domain.
In short: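 Yeast transcription factors, full-length or as DNA-binding domains, were expressed with a GST tag using PURExpress in vitro transcription/translation. At about 100-200 nM they were applied to universal all-10-mer Agilent arrays, double-stranded by primer extension on fresh or once-stripped slides. Fluorescent anti-GST detected bound protein, and masliner normalised the scans. E-scores for ungapped eight-base words, pooled with reverse complements, came from the Universal PBM Analysis Suite.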

Chain of UniProt P0CE41 (P0CE41 whole entry, the tested form may be a part): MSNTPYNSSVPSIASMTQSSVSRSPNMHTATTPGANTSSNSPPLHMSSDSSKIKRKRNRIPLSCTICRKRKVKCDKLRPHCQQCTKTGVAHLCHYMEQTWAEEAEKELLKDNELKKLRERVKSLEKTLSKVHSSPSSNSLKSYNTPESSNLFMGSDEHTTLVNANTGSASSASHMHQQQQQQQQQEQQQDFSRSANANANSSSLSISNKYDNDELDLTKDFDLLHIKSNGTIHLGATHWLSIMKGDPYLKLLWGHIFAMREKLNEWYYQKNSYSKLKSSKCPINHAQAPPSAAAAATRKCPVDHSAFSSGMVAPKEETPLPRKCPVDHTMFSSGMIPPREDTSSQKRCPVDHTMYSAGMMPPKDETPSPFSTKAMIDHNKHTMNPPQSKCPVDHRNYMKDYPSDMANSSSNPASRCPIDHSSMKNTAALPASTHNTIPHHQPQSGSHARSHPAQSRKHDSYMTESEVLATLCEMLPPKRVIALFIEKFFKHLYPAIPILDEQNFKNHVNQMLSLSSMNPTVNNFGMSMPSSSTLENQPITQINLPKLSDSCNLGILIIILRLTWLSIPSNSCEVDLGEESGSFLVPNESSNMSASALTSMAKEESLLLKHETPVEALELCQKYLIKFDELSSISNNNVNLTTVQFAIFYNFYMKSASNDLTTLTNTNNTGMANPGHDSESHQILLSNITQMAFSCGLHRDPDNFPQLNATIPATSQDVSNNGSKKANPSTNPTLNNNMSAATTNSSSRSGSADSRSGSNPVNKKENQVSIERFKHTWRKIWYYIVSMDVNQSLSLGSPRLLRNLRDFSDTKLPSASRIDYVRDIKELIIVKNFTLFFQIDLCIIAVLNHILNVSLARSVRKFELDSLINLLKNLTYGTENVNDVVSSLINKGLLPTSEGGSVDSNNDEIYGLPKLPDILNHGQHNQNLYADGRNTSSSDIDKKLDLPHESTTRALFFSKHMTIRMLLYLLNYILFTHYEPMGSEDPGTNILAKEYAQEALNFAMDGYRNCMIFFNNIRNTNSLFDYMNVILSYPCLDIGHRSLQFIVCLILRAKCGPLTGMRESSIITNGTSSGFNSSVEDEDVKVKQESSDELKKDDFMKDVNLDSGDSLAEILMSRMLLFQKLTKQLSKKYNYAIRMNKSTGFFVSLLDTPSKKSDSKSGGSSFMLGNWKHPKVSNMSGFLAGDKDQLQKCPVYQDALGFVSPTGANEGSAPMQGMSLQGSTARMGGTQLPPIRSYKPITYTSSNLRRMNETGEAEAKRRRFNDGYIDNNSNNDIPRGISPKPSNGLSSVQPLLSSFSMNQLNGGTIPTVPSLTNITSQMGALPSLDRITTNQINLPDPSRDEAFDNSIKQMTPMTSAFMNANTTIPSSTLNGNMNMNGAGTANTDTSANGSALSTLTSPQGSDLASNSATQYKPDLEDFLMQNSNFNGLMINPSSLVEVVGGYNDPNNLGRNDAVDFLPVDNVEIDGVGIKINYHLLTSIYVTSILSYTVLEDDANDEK

Sequence	PBM E-score
AAGCATGA	-0.053
ATTGAGGA	-0.0213
AAGGGTGG	-0.142
ATATATAG	0.11
AGCCACCA	-0.292
ACGTATGC	-0.0215
TCTAATAA	-0.211
GTTCGCTA	-0.0223
ATTCATGC	0.0263
ACCCTGAA	-0.17
AGCAACGA	-0.243
GATACGCA	-0.135
GGCAAGAA	-0.0276
GGGGCACA	-0.168
GAGCAGGA	-0.0327
TAAGAACA	0.0677
ACACAGTG	-0.131
GTTCTTTA	-0.0909
GATCAACC	0.0462
GCGTTGCA	0.0308
AAAGCCTG	-0.184
GCCTCGAA	-0.235
TAGGCCTA	-0.351
ATAGGGAC	-0.0258

Sequence	PBM E-score
CCTAGAAG	-0.0657
CTGAATTC	-0.154
ACTCTGGA	-0.192
AGGCTTCA	-0.0197
ATGTTCCA	-0.0712
ACTGGAGG	-0.0919
GCTACCAA	-0.0512
GCCGCGCC	-0.00918
AGATAGTG	0.0863
CCAGTCTC	-0.0917
CCACCACG	0.0598
GCCAAGCC	-0.0141
AACCTCAC	-0.19
CTAAACCA	-0.0316
ATATCATC	-0.106
ACGGATTA	0.142
AATGTGAA	-0.0756
ACTGCGCT	-0.253
TCGTACCA	-0.114
CAAGGTAC	-0.288
CATGTCTC	0.131
CAACGTAA	-0.247
ATAATTGC	0.0739
CGATAAGA	0.291

Sequence	PBM E-score
CGTCTGAG	-0.029
GGTGGCAA	-0.221
AGAGTTGG	-0.185
ATACGTAC	-0.0176
ATTACAGA	-0.0355
AAGAAGTG	-0.13
CGTTCATC	0.0044
CTATATTA	-0.0472
ATGACCCA	-0.186
CCCATAGC	-0.134
CCAAATTC	-0.0397
CCCTGGAG	-0.335
ATTGTAGG	-0.221
AGGGGACA	-0.158
GTCGGGAA	0.185
CCCCCGTA	-0.0945
CTACTGAA	-0.129
TACTTCAA	-0.0112
CGGGCAAG	0.174
CCTACCTC	-0.0433
GAGATAGA	-0.072
TCCATGGA	0.141
GGCCTCTA	-0.34
TAGTGTAA	-0.159

Sequence	PBM E-score
TATGCCCA	-0.128
AAATGCAC	0.224
ATCAAGTG	-0.0525
CCATATTA	-0.192
AGGAGTTC	-0.143
AACTTCAG	-0.156
AAGTGTAC	-0.269
GGTTGAAA	0.00999
GTGATTGA	0.00585
CGCAAACC	0.0113
ACCTGCTG	-0.058
AAGGAAGA	-0.121
AAACCCGA	0.439
AGGCATGC	-0.214
CGCGAGAC	-0.0718
CCCATGTA	-0.0209
AGGCAGAC	-0.163
GACTTCTA	-0.185
ACTCGACT	-0.297
ACGGTGGA	-0.062
GAGCCCAC	0.0496
CCTGAACA	-0.0369
